# Test results: PubChem BioAssay (Tox21)
# Several values for one entry are separate records, joined by “and”; a condition that tells them apart may be missing. Equal entries are not always repeated. Inconclusive results, whose numbers are uncertain, are shown with a selection of clear calls. Potencies of inconclusive entries are doubtful fits and often do not repeat. The source holds several records for some structures; these can differ, active in one and inactive in another. Activity calls are given as the source filed them. Unless noted, calls come from the whole dose curve; as a rule, active = well fitted curve in the direction sought with a large enough effect in the repeat runs; inconclusive = weak or mixed curves; inactive = no such curve, though single readings can be large; an effect the other way counts as inactive or inconclusive.
# What was measured:
# [1] = biological target: Nuclear receptor ROR-gamma (Homo sapiens) (UniProt P51449); test: qHTS assay to identify small molecule antagonists of the retinoid-related orphan receptor gamma (ROR-gamma) signaling pathway (AID 1159521; note: nearly all actives have a fitted effect of over 50% in size)
# Method in brief: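 Readout: ONE-Glo luciferase luminescence, 30 min at room temperature. System: Tet-on RORγ CHO, RORE-LUC. Sequence: compound 2 h, doxycycline 1 uM final, 16 h at 37 C.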
# [2] = qHTS assay to identify small molecule agonists of the AP-1 signaling pathway (AID 1159526; calls by dose curve; for activation: % is set by controls: 0 for no effect and ±100 for the full control effect); conditions: ME-180 (cervical carcinoma) AP-1-bla reporter, beta-lactamase FRET ratio, 5 h; activation: at 76.8 µM (top of the series) unless noted
# [3] = biological target: Retinoic acid receptor RXR-alpha (Homo sapiens) (UniProt P19793); test: qHTS assay to identify small molecule agonists of the RXR signaling pathway (AID 1159527; calls by dose curve; note: nearly all actives have a fitted effect of over 35% in size; for activation: % is set by controls: 0 for no effect and ±100 for the full control effect); conditions: HEK293T RXRa-UAS-bla, beta-lactamase ratio, 16 h; activation: at 76.8 µM (top of the series) unless noted
# Chain of UniProt P19793 (P19793 whole entry, looked up): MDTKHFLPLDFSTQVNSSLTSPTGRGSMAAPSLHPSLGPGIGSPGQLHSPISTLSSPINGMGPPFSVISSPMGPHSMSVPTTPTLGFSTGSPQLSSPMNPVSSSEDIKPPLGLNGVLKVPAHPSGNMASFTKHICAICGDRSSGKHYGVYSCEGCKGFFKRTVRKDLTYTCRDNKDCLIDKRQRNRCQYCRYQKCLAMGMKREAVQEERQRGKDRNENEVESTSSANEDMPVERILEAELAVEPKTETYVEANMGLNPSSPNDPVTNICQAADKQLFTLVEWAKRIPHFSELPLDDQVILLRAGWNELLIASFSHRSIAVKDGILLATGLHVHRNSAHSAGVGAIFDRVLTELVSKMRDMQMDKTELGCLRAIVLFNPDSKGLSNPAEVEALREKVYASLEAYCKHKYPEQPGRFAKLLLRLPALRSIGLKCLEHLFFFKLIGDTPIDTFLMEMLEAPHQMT
# Method in brief: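 Reporter activation is measured as beta-lactamase activity via FRET substrate cleavage (emission 460/530 nm) in HEK 293T cells expressing an RXR-alpha-driven bla construct, following 16 hr compound exposure at 37 C.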
# [4] = qHTS assay to identify small molecule agonists of the RXR signaling pathway - cell viability counter screen (AID 1159529); note: nearly all actives have a fitted effect of over 50% in size
# Method in brief: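 Tox21 10K compounds were tested for cytotoxicity against GeneBLAzer RXR-alpha HEK 293T cells grown in 2% charcoal-stripped FBS. Exposure lasted 16 hr at 37 C, 5% CO2; viability read by CellTiter-Glo luminescence.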
# [5] = qHTS assay to identify small molecule antagonists of the retinoic acid receptor (RAR) signaling pathway (AID 1159552; note: nearly all actives have a fitted effect of over 50% in size)
# Method in brief: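 Overnight-plated C3RL4 reporter cells get compound, then retinol to 1 uM final; plates sit 6 hr at 37 C, 5% CO2. A luciferase reagent is added and light output recorded after 30 min at room temperature.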
# [6] = qHTS assay to identify small molecule agonists of the retinoic acid receptor (RAR) signaling pathway (AID 1159553); conditions: C3RL4 RARE luciferase reporter, agonist, 6 h; activation: at 73.3 µM (top of the series) unless noted; for activation: % is set by controls: 0 for no effect and ±100 for the full control effect
# Method in brief: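 C3RL4 RARE-luciferase cells were seeded at 1,000/well and grown overnight at 37 C, then exposed to compounds for 6 hr at 37 C, 5% CO2. Luciferase reagent was added and luminescence was read after 30 min at room temperature.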
# [7] = qHTS assay to identify small molecule antagonists of the retinoid acid receptor (RAR) signaling pathway - cell viability counter screen (AID 1159551); note: nearly all actives have a fitted effect of over 35% in size
# Method in brief: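 C3RL4 RARE-luciferase cells, 1,000/well, incubated overnight, then dosed with compound plus 1 uM retinol (final). After 6 hr at 37 C, viability read by CellTiter-Glo ATP luminescence following 30 min at room temperature.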
# Potency is the fitted concentration of half-maximal effect; tags give direction and shape of the fitted curve or compound fluorescence and quenching.
smiles,measurement,setting,value
C#C[C@]1(O)CC[C@H]2[C@@H]3CCC4=CC(=O)CC[C@]4(C)[C@H]3CC[C@@]21C,Potency,[1],"inconclusive: 1.09 µM [inhibitor, full curve, poor fit]"
same,Potency,[2],"inconclusive: 15.5 µM [activator, partial curve, poor fit] and inactive"
same,Potency,[3],inconclusive: 5.49 µM [fluorescent]
same,activation,[3],inconclusive: -2.96% [at 35.3 µM]
same,Potency,[4],"inconclusive: 6.16 µM [cytotoxic, partial curve, poor fit]"
same,Potency,[5],"inconclusive: 9.69 µM [inhibitor, partial curve, poor fit]"
same,activation,[6],inconclusive: -3.9% [phenotype inactive]
CCOc1cc(Oc2ccc(C(F)(F)F)cc2Cl)ccc1[N+](=O)[O-],Potency,[1],"inconclusive: 55.1 µM [inhibitor, partial curve] and inconclusive: 68.6 µM [inhibitor, single point]"
same,Potency,[3],"inconclusive: 13.8 µM [inhibitor, full curve]"
Cc1cccc(N)c1C,Potency,[1],inactive
same,Potency,[3],active: 11.4 µM and inactive
Cc1c([N+](=O)[O-])cc2c(c1[N+](=O)[O-])C(C)(C)CC2(C)C,Potency,[1],"inconclusive: 6.86 µM [inhibitor, single point]"
same,activation,[2],inconclusive: 2.85%
same,Potency,[3],"inconclusive: 21.9 µM [activator, partial curve]"
same,Potency,[4],"inconclusive: 17.4 µM [cytotoxic, full curve]"
CCCCC(C#N)(Cn1cncn1)c1ccc(Cl)cc1 (stereo not given),Potency,[1],"inconclusive: 34.2 µM [inhibitor, full curve, poor fit] and inconclusive: 5.45 µM [inhibitor, full curve]"
same,activation,[3],inconclusive: -1.04% and inconclusive: -3.38%
OCCCBr,Potency,[1],inactive
same,Potency,[2],inconclusive: 54.9 µM
same,Potency,[3],inconclusive: 61.6 µM [fluorescent]
same,Potency,[4],"inconclusive: 19.5 µM [rising, partial curve, poor fit]"
CCCCCCn1cc[n+](C)c1,Potency,[1],"inconclusive: 1.4 µM [inhibitor, full curve, poor fit]"
same,Potency,[3],inactive
C=CC(=O)OCCCCO,Potency,[1],"inconclusive: 77 µM [inhibitor, partial curve, poor fit]"
same,Potency,[2],"inconclusive: 8.71 µM [falling, partial curve, poor fit]"
same,Potency,[7],"inconclusive: 48.6 µM [rising, partial curve, poor fit]"
O=NN1CCCCCC1,Potency,[1],inactive
same,activation,[3],inconclusive: 3.67%
CC(C)(C)C(O)C(Oc1ccc(-c2ccccc2)cc1)n1cncn1 (stereo not given),Potency,[1],active: 27.3 µM
same,Potency,[2],"inconclusive: 61.6 µM [cytotoxic, single point]"
same,Potency,[3],inconclusive: 49 µM [inhibitor]
same,Potency,[4],active: 54.9 µM
same,Potency,[7],"inconclusive: 68.6 µM [cytotoxic, single point]"
CSc1nc(NC(C)C)nc(NC(C)C)n1,Potency,[1],"inconclusive: 68.6 µM [inhibitor, single point]"
same,Potency,[2],"inconclusive: 54.7 µM [activator, partial curve, poor fit]"
same,activation,[3],inconclusive: 22.9%
same,Potency,[5],"inconclusive: 61.1 µM [inhibitor, partial curve, poor fit]"
CN1C[C@H](CNC(=O)OCc2ccccc2)C[C@@H]2c3cccc4c3c(cn4C)C[C@H]21,Potency,[1],"inconclusive: 29.8 µM [inhibitor, partial curve]"
same,Potency,[2],"inconclusive: 13.4 µM [falling, full curve]"
same,Potency,[3],"inconclusive: 21.3 µM [inhibitor, partial curve, poor fit]"
same,Potency,[4],inactive
COc1ccc(C=O)cc1OC,Potency,[1],inconclusive: 61.8 µM [inhibitor]
same,Potency,[2],inconclusive: 49.5 µM and inactive
same,Potency,[4],"inconclusive: 55.5 µM [cytotoxic, single point]"
same,Potency,[6],"inconclusive: 49.1 µM [activator, partial curve, poor fit]"
CCOC(=O)C1(c2ccccc2)CCN(CCC(C#N)(c2ccccc2)c2ccccc2)CC1,Potency,[1],active: 18.8 µM
same,activation,[3],inconclusive: -0.913% [at 35.3 µM]
ClCBr,Potency,[1],"inconclusive: 32.4 µM [inhibitor, single point]"
same,Potency,[2],inactive
same,Potency,[4],inactive
